# Some of the results follow.
# Assays:
# Assay in all cases: glycan array binding signal (z-score within array); higher = stronger binding
# Conditions in all cases: glycan notation: IUPAC condensed, linker removed
# [1] = molecular target: Neu5Ac(a2-3)Gal(b1-4)GlcNAc(b1-3)Gal(b1-4)GlcNAc(b1-2)Man(a1-3)[Neu5Ac(a2-3)Gal(b1-4)GlcNAc(b1-3)Gal(b1-4)GlcNAc(b1-2)Man(a1-6)]Man(b1-4)GlcNAc(b1-4)GlcNAc
# Summary of the method: (§1)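 From the Consortium for Functional Glycomics database, 3228 arrays were curated, keeping only those whose protein sequence was available. Binding is given as a within-array Z-score averaged across arrays sharing a protein sequence and across linkers. Negative Z-scores can be read as non-binding.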
# [2] = molecular target: Neu5Ac(a2-3)Gal(b1-4)GlcNAc(b1-3)Gal(b1-4)GlcNAc(b1-3)Gal(b1-4)GlcNAc
# Summary of the method: as §1
# [3] = molecular target: Neu5Ac(a2-3)Gal(b1-4)GlcNAc(b1-3)Gal(b1-4)GlcNAc(b1-3)Gal(b1-4)GlcNAc(b1-2)Man(a1-3)[Neu5Ac(a2-3)Gal(b1-4)GlcNAc(b1-3)Gal(b1-4)GlcNAc(b1-3)Gal(b1-4)GlcNAc(b1-2)Man(a1-6)]GalNAc
# Summary of the method: as §1
# [4] = molecular target: Neu5Ac(a2-3)Gal(b1-4)GlcNAc(b1-3)Gal(b1-4)GlcNAc(b1-3)GalNAc
# Summary of the method: as §1
# [5] = molecular target: Neu5Ac(a2-3)Gal(b1-4)GlcNAc(b1-3)Gal(b1-4)GlcNAc(b1-3)[Neu5Ac(a2-3)Gal(b1-4)GlcNAc(b1-3)Gal(b1-4)GlcNAc(b1-6)]GalNAc
# Summary of the method: as §1
# [6] = molecular target: Neu5Ac(a2-3)Gal(b1-4)GlcNAc(b1-3)Gal(b1-4)GlcNAc(b1-6)[Gal(b1-3)]GalNAc
# Summary of the method: as §1
# [7] = molecular target: Neu5Ac(a2-3)Gal(b1-4)GlcNAc(b1-3)Gal(b1-4)[Fuc(a1-3)]GlcNAc
# Summary of the method: as §1
# [8] = molecular target: Neu5Ac(a2-3)Gal(b1-4)GlcNAc(b1-3)GalNAc
# Summary of the method: as §1
# [9] = molecular target: Neu5Ac(a2-3)Gal(b1-4)GlcNAc(b1-3)[Neu5Ac(a2-3)Gal(b1-4)GlcNAc(b1-6)]GalNAc
# Summary of the method: as §1
# [10] = molecular target: Neu5Ac(a2-3)Gal(b1-4)GlcNAc(b1-6)GalNAc
# Summary of the method: as §1
# [11] = molecular target: Neu5Ac(a2-3)Gal(b1-4)GlcNAc(b1-6)[Gal(b1-3)]GalNAc
# Summary of the method: as §1
# [12] = molecular target: Neu5Ac(a2-3)Gal(b1-4)GlcNAc(b1-6)[Neu5Ac(a2-3)Gal(b1-3)]GalNAc
# Summary of the method: as §1
# [13] = molecular target: Neu5Ac(a2-3)Gal(b1-4)GlcNAc6S
# Summary of the method: as §1
# [14] = molecular target: Neu5Ac(a2-3)Gal(b1-4)[Fuc(a1-3)]GlcNAc
# Summary of the method: as §1
# [15] = molecular target: Neu5Ac(a2-3)Gal(b1-4)[Fuc(a1-3)]GlcNAc(b1-2)Man
# Summary of the method: as §1
# [16] = molecular target: Neu5Ac(a2-3)Gal(b1-4)[Fuc(a1-3)]GlcNAc(b1-3)Gal
# Summary of the method: as §1
# [17] = molecular target: Neu5Ac(a2-3)Gal(b1-4)[Fuc(a1-3)]GlcNAc(b1-3)Gal(b1-4)GlcNAc
# Summary of the method: as §1
# [18] = molecular target: Neu5Ac(a2-3)Gal(b1-4)[Fuc(a1-3)]GlcNAc(b1-3)Gal(b1-4)[Fuc(a1-3)]GlcNAc(b1-3)Gal(b1-4)[Fuc(a1-3)]GlcNAc
# Summary of the method: as §1
# [19] = molecular target: Neu5Ac(a2-3)Gal(b1-4)[Fuc(a1-3)]GlcNAc(b1-3)GalNAc
# Summary of the method: as §1
# [20] = molecular target: Neu5Ac(a2-3)Gal(b1-4)[Fuc(a1-3)]GlcNAc(b1-6)[Gal(b1-3)]GalNAc
# Summary of the method: as §1
# [21] = molecular target: Neu5Ac(a2-3)Gal(b1-4)[Fuc(a1-3)]GlcNAc(b1-6)[Neu5Ac(a2-3)Gal(b1-3)]GalNAc
# Summary of the method: as §1
# [22] = molecular target: Neu5Ac(a2-3)Gal(b1-4)[Fuc(a1-3)]GlcNAc6S
# Summary of the method: as §1
# [23] = molecular target: Neu5Ac(a2-3)Gal6S(b1-4)GlcNAc
# Summary of the method: as §1
# [24] = molecular target: Neu5Ac(a2-3)Gal6S(b1-4)[Fuc(a1-3)]GlcNAc
# Summary of the method: as §1
# Neu5Ac(a2-3)GalNAc = molecular target: Neu5Ac(a2-3)GalNAc
# Summary of the method: as §1
# [25] = molecular target: Neu5Ac(a2-3)GalNAc(b1-4)GlcNAc
# Summary of the method: as §1
# [26] = molecular target: Neu5Ac(a2-3)[GalNAc(b1-4)]Gal(b1-4)Glc
# Summary of the method: as §1
# [27] = molecular target: Neu5Ac(a2-3)[GalNAc(b1-4)]Gal(b1-4)GlcNAc
# Summary of the method: as §1
# [28] = molecular target: Neu5Ac(a2-3)[GalNAc(b1-4)]Gal(b1-4)GlcNAc(b1-3)GalNAc
# Summary of the method: as §1
# [29] = molecular target: Neu5Ac(a2-3)[Neu5Ac(a2-6)]GalNAc
# Summary of the method: as §1
# Neu5Ac(a2-6)Gal = molecular target: Neu5Ac(a2-6)Gal
# Summary of the method: as §1
# [30] = molecular target: Neu5Ac(a2-6)Gal(b1-3)GlcNAc(b1-3)[Gal(b1-4)GlcNAc(b1-6)]Gal(b1-4)Glc
# Summary of the method: as §1
# Neu5Ac(a2-6)Gal(b1-4)Glc = molecular target: Neu5Ac(a2-6)Gal(b1-4)Glc
# Summary of the method: as §1
# [31] = molecular target: Neu5Ac(a2-6)Gal(b1-4)GlcNAc
# Summary of the method: as §1
# [32] = molecular target: Neu5Ac(a2-6)Gal(b1-4)GlcNAc(b1-2)Man
# Summary of the method: as §1
# [33] = molecular target: Neu5Ac(a2-6)Gal(b1-4)GlcNAc(b1-2)Man(a1-3)Man(b1-4)GlcNAc(b1-4)GlcNAc
# Summary of the method: as §1
# [34] = molecular target: Neu5Ac(a2-6)Gal(b1-4)GlcNAc(b1-2)Man(a1-3)[Gal(b1-4)GlcNAc(b1-2)Man(a1-6)]Man(b1-4)GlcNAc(b1-4)GlcNAc
# Summary of the method: as §1
# [35] = molecular target: Neu5Ac(a2-6)Gal(b1-4)GlcNAc(b1-2)Man(a1-3)[GlcNAc(b1-2)Man(a1-6)]Man(b1-4)GlcNAc(b1-4)GlcNAc
# Summary of the method: as §1
# [36] = molecular target: Neu5Ac(a2-6)Gal(b1-4)GlcNAc(b1-2)Man(a1-3)[GlcNAc(b1-2)Man(b1-4)GlcNAc(b1-2)Man(a1-6)]Man(b1-4)GlcNAc(b1-4)GlcNAc
# Summary of the method: as §1
# [37] = molecular target: Neu5Ac(a2-6)Gal(b1-4)GlcNAc(b1-2)Man(a1-3)[GlcNAc(b1-4)][Neu5Ac(a2-6)Gal(b1-4)GlcNAc(b1-2)Man(a1-6)]Man(b1-4)GlcNAc(b1-4)GlcNAc
# Summary of the method: as §1
# [38] = molecular target: Neu5Ac(a2-6)Gal(b1-4)GlcNAc(b1-2)Man(a1-3)[Man(a1-6)]Man(b1-4)GlcNAc(b1-4)GlcNAc
# Summary of the method: as §1
# [39] = molecular target: Neu5Ac(a2-6)Gal(b1-4)GlcNAc(b1-2)Man(a1-3)[Neu5Ac(a2-3)Gal(b1-4)GlcNAc(b1-2)Man(a1-6)]Man(b1-4)GlcNAc(b1-4)GlcNAc
# Summary of the method: as §1
# [40] = molecular target: Neu5Ac(a2-6)Gal(b1-4)GlcNAc(b1-2)Man(a1-3)[Neu5Ac(a2-6)Gal(b1-4)GlcNAc(b1-2)Man(a1-6)]Man(b1-4)GlcNAc(b1-4)GlcNAc
# Summary of the method: as §1
# [41] = molecular target: Neu5Ac(a2-6)Gal(b1-4)GlcNAc(b1-2)Man(a1-3)[Neu5Ac(a2-6)Gal(b1-4)GlcNAc(b1-2)Man(a1-6)]Man(b1-4)GlcNAc(b1-4)[Fuc(a1-6)]GlcNAc
# Summary of the method: as §1
# [42] = molecular target: Neu5Ac(a2-6)Gal(b1-4)GlcNAc(b1-2)Man(a1-6)Man(b1-4)GlcNAc(b1-4)GlcNAc
# Summary of the method: as §1
binder,measurement,setting,value
"HPA (Helix pomatia), Q2F1K8 (protein) MQAFYSGLLLLCVVAFAAAQRVQSGKIDCGNDAGWAKVPSDDPGRDNTRELAKNITFASPYCRPPVVLLSITQLDVEQSQNLRVIARLYSVSPTGFKASCYTWHNTKVYSMSISWISIENY",glycan array binding signal (z-score),[1],0.641
same,glycan array binding signal (z-score),[2],-0.202
same,glycan array binding signal (z-score),[3],0.915
same,glycan array binding signal (z-score),[4],-0.363
same,glycan array binding signal (z-score),[5],0.138
same,glycan array binding signal (z-score),[6],0.16
same,glycan array binding signal (z-score),[7],-0.265
same,glycan array binding signal (z-score),[8],-0.366
same,glycan array binding signal (z-score),[9],-0.279
same,glycan array binding signal (z-score),[10],-0.396
same,glycan array binding signal (z-score),[11],-0.24
same,glycan array binding signal (z-score),[12],-0.231
same,glycan array binding signal (z-score),[13],-0.36
same,glycan array binding signal (z-score),[14],-0.308
same,glycan array binding signal (z-score),[15],-0.061
same,glycan array binding signal (z-score),[16],-0.334
same,glycan array binding signal (z-score),[17],0.04
same,glycan array binding signal (z-score),[18],-0.013
same,glycan array binding signal (z-score),[19],0.037
same,glycan array binding signal (z-score),[20],0.461
same,glycan array binding signal (z-score),[21],0.492
same,glycan array binding signal (z-score),[22],-0.308
same,glycan array binding signal (z-score),[23],-0.242
same,glycan array binding signal (z-score),[24],-0.329
same,glycan array binding signal (z-score),Neu5Ac(a2-3)GalNAc,-0.277
same,glycan array binding signal (z-score),[25],-0.242
same,glycan array binding signal (z-score),[26],-0.193
same,glycan array binding signal (z-score),[27],-0.296
same,glycan array binding signal (z-score),[28],0.393
same,glycan array binding signal (z-score),[29],-0.294
same,glycan array binding signal (z-score),Neu5Ac(a2-6)Gal,-0.152
same,glycan array binding signal (z-score),[30],-0.2
same,glycan array binding signal (z-score),Neu5Ac(a2-6)Gal(b1-4)Glc,-0.136
same,glycan array binding signal (z-score),[31],-0.28
same,glycan array binding signal (z-score),[32],-0.191
same,glycan array binding signal (z-score),[33],-0.265
same,glycan array binding signal (z-score),[34],-0.26
same,glycan array binding signal (z-score),[35],-0.278
same,glycan array binding signal (z-score),[36],-0.017
same,glycan array binding signal (z-score),[37],-0.345
same,glycan array binding signal (z-score),[38],-0.129
same,glycan array binding signal (z-score),[39],-0.229
same,glycan array binding signal (z-score),[40],-0.241
same,glycan array binding signal (z-score),[41],0.309
same,glycan array binding signal (z-score),[42],-0.34

# Source: the supplement of paper PMC8728848
